PubChem BioAssay AID1508624 (National Center for Advancing Translational Sciences (NCATS), 2021)
Screen size: about 48,000 compounds; about 120 (0.25%) were called active. Another 4% or so got no clear call; they are omitted. Calls follow the shape of the dose curve; as a rule, active = well fitted activation curve with a large enough effect; inconclusive = small, poorly fitted or top-dose-only effect, or another doubt; inactive = no such curve, though single readings can be large or run the other way. This is one part of the list.

test: Primary qHTS for Identification of Small Molecule Activators of Huntingtin-Antisense Promoter Activity; conditions: HEK293 HTT-AS promoter firefly luciferase reporter, 24 h; series mostly up to 57.5 µM; activity change, positive = activation: at the top concentration; also: nearly all actives have a fitted effect of over 55% in size
How it was run: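 HEK293 Fluc reporter, 2,500 cells/well, 24 h pre-culture; cpds up to 57.5 uM final, 24 h 37 degrees C; Dual-Glo, 10 min RT; normalized vehicle = 0%, zero RLU = -100%.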

Activity change, positive = activation, inactive:
NC(Cc1ccc(Cl)cc1)C(=O)O (configuration not stated) -3.18% [at 0.74 µM, percent change from vehicle, -100% = no light]
CCOc1ccc(NC(=O)c2c(NC(=O)c3ccccc3Br)sc3c2CCC(C)C3)cc1 (configuration not stated) -8.24%
CCOc1ccc(NC(=O)CC2C(=O)N(c3ccc(C)cc3)C(=O)N2Cc2ccc(OC)cc2)cc1 (configuration not stated) -20.2%
CCC(=O)N1CCc2cc(Br)cc(S(=O)(=O)N(CC)Cc3ccccc3)c21 -7.77%
COc1ccc(OC)c(NC(=O)N(C)CCc2c(C)nn(C)c2C)c1 8.39%
CCc1cccc(C)c1NC(=O)c1cn2c3c(ccc(Cl)c3c1=O)OC(C)C2 (configuration not stated) -19.2%
Cc1cccc(N2CCN(c3ncnc4onc(C)c34)CC2C)c1 (configuration not stated) -93.2%
Cc1ccc(-c2nc3ncccc3o2)cc1NC(=O)c1ccc(-c2cccc(Cl)c2C)o1 -6.18%
Cc1nc(-c2cccc(F)c2)sc1CCNC(=O)C(=O)Nc1ccc2c(c1)OCO2 -10.3%
CCCCN(C)S(=O)(=O)c1cc(-c2cc(C)no2)ccc1C -30.2%
CCOc1ccc(S(=O)(=O)NCC(c2ccc(N(C)C)cc2)N2CCc3ccccc32)cc1 (configuration not stated) -15%
Cc1cc(-c2nc3ncccc3o2)ccc1NC(=O)c1ccc(Cl)cc1 6.55%
COC(=O)CSc1ccc2nnc(CCNS(=O)(=O)c3ccccc3)n2n1 -10.4%
CCOC(=O)c1ccc(NC(=O)c2c(NCc3cc(OC)c(OC)cc3OC)sc3c2CCCC3)cc1 -21.3%
CCc1ccc(N2CCn3c2nc2c3c(=O)n(CCCc3ccccc3)c(=O)n2C)cc1 -10.9%
CCCc1cnc2c(c1SCC(=O)Nc1cccc(C)c1C)c(=O)n(C)c(=O)n2C -6.85%
CCOc1ccc(-c2nonc2NC(=O)COc2ccccc2)cc1 2.96%
COc1ccc(-n2cc(-c3ccccc3)c3c(NCCc4ccc(OC)c(OC)c4)ncnc32)cc1 -45.8%
CCN1CCN(c2cc3c(cc2F)c(=O)c(S(=O)(=O)c2cc(C)cc(C)c2)cn3CC)CC1 4.56%
Cn1c(=O)oc2cc(S(=O)(=O)N3CCCC(C(=O)N4CCN(c5cccc(Cl)c5)CC4)C3)ccc21 (configuration not stated) -42.5%
O=C(NCCCCc1ccccc1)c1nn(-c2ccccc2)nc1CO -28.8%
COc1ccc(NC(=O)Cn2nnc(C(=O)Nc3ccc(C)c(F)c3)c2N)cc1Cl -15.7%
CC1=C(C(=O)OCC2CCCCC2)C(c2cccc(F)c2F)CC(=O)N1 (configuration not stated) -19.6%
O=C(CC1(O)C(=O)N(Cc2ccccc2)c2ccc(Br)cc21)c1ccccc1 (configuration not stated) -29.9%
COc1ccc(CNC(=O)CN(c2ccc(OC)cc2)S(=O)(=O)c2c(C)[nH]c(=O)[nH]c2=O)cc1 6.48% [at 11.5 µM, percent change from vehicle, -100% = no light]
NS(=O)(=O)c1cc(C(=O)O)cc(N2CCCC2)c1Oc1ccccc1 -7.9%
Cc1cc(C)cc(OCCn2c(CCNC(=O)C3CCCCC3)nc3ccccc32)c1 -4.52%
O=C(Cc1ccccc1F)N1CCC(c2nc3c(nnn3Cc3cccc(Cl)c3)c(=O)[nH]2)CC1 -50.9%
Cc1ccn2c(Nc3ccccc3C)c(-c3ccccc3)nc2c1 -14%
O=C(Nc1ccc2nc(SCC(=O)N3CCOCC3)sc2c1)c1ccccc1Cl -27%
Cc1cccc(OCC(=O)Nc2ccccc2OCc2cc(=O)n3cc(C)ccc3n2)c1 -6.35%
Cc1ccc(NCc2cccn2-c2nnc(N3CCC(C(=O)NCc4ccc(F)cc4)CC3)s2)cc1 -41.8%
CCn1ccc2cc(S(=O)(=O)N3CCC(C(=O)NCc4ccc(F)cc4)CC3)ccc21 -19.4%
O=C(Cn1c(=O)n2nc(-c3cccc(F)c3)nc2c2ccccc21)NCc1ccc(Cl)cc1 4.34%
COc1cccc(NC(=O)Cn2c(=O)n(Cc3ccco3)c(=O)c3cc(OC)c(OC)cc32)c1 -25.3%
COc1ccc(-c2cccc(NS(=O)(=O)c3cc(C)ccc3OC)c2)nn1 -33.7%
CCc1cccc(C)c1NS(=O)(=O)c1ccc(-c2cc(C)no2)s1 -25%
Cc1ccccc1NC(=O)c1c(NC(=O)c2cccs2)sc2c1CCC(C)C2 (configuration not stated) -8.97%
O=C(Nc1ccc2nn(-c3ccc(Cl)cc3)nc2c1)c1cc2ccccc2o1 -9.52%
COc1ccc(C(=O)NCC(c2ccco2)S(=O)(=O)c2cccs2)cc1 (configuration not stated) 15.3%
N#Cc1nc(/C=C/c2ccc(F)cc2)oc1NC1CCCCC1 -4.77%
COc1ccc(N(C)C(=O)C2CCN(S(=O)(=O)c3cc(Br)cc4c3N(C(C)=O)CC4)CC2)cc1 3.04%
Cc1ccc(OCc2cc(=O)n3ccsc3n2)c(NC(=O)c2ccco2)c1 -10.7%
CCOC(=O)c1cc(-c2ccccc2)n(CCC(=O)NCCc2ccc(OC)c(OC)c2)c1C -16.8%
Cc1c(F)cc2c(=O)c(C(=O)O)cn3c2c1CCC3C (configuration not stated) -14.3%
COc1ccc(-c2nc3cc(NC(=O)c4cc5ccccc5o4)ccc3o2)cc1 9.89%
O=C(Nc1ccc2nc(SCC(=O)N3CCOCC3)sc2c1)c1ccc(Cl)cc1 -33%
O=C(c1ccccc1)N1CCCCC1CCN1CCCCC1 (configuration not stated) -10.1%
CCN(Cc1ccccc1)C(=O)C(CC(C)C)NS(=O)(=O)c1ccc2c(c1)CCN2C(C)=O (configuration not stated) 0%
Cc1cccc(N2CCN(C(=O)c3nn(C)c4c3CS(=O)(=O)c3ccccc3-4)CC2C)c1 (configuration not stated) -29.3%
Cc1ccc(-n2c(=O)c3ccccc3n(CC(=O)Nc3cccc(C(F)(F)F)c3)c2=O)cc1 -38.5%
N#C/C(=C\c1ccc(Cl)cc1)c1nc(-c2cc3c(ccc4ccccc43)oc2=O)cs1 -9.3%
O=C(Cn1c(=O)n(-c2ccccc2)c(=O)c2sc3ccccc3c21)NC1CCCC1 -5.11%
Cc1ccc(C)c(Nc2nn3c(=O)c4ccc(C(=O)NCc5cccs5)cc4nc3s2)c1 -36.7%
COc1cccc(N2CCN(c3ncnc4onc(-c5ccc(Cl)cc5)c34)CC2)c1 -29.8%
CN(C1CCCCC1)S(=O)(=O)c1ccc2c(c1)c(=O)c(C(=O)NCc1ccc(Cl)cc1)cn2C 28.9% [at 11.5 µM, percent change from vehicle, -100% = no light]
O=C(CN1C(=O)CC(c2ccc(F)cc2)=Nc2ccccc21)NCc1ccccc1Cl -31.4%
